According to PubChem BioAssay AID1508624 (National Center for Advancing Translational Sciences (NCATS), 2021):
Screen size: about 48,000 compounds; about 120 (0.25%) were called active. About 4% were inconclusive and are not listed. Calls come from the whole dose curve; as a rule, active = well fitted activation curve with a large enough effect; inconclusive = small, poorly fitted or top-dose-only effect, or another doubt; inactive = no such curve, though single readings can be large or run the other way. The list shows a part of the results.

assay: Primary qHTS for Identification of Small Molecule Activators of Huntingtin-Antisense Promoter Activity; conditions: HEK293 HTT-AS promoter firefly luciferase reporter, 24 h; series mostly up to 57.5 µM; activity change, positive = activation: at the top concentration; note: nearly all actives have a fitted effect of over 55% in size
Procedure, shortened: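 HEK293 Fluc reporter, 2,500 cells/well, 24 h pre-culture; cpds up to 57.5 uM final, 24 h 37 degrees C; Dual-Glo, 10 min RT; normalized vehicle = 0%, zero RLU = -100%.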

Activity change, positive = activation, inactive:
COc1ccc(N2CCN(C(=O)CS(=O)(=O)c3cccc4nsnc34)CC2)cc1 -30.5%
CCCCN1CCc2nc(N3CCN(C)CC3)ncc2C1 -6.65%
O=C(NCCc1csc(-c2cccnc2)n1)c1ccc(F)c(F)c1 -31.2%
COc1ccc(CCN2CCC(CNC(=O)c3cnn(-c4ccccc4)c3C3CCN(C(=O)OC(C)(C)C)CC3)CC2)cc1 -15.4%
COc1ccccc1N1CCN(C(=O)c2cn(C)c3ccc(S(=O)(=O)N4CCOCC4)cc3c2=O)CC1 -11.3% [at 11.5 µM, percent change from vehicle, -100% = no light]
CN(C)c1ccc(CNC(=O)CCCn2ccc3cc(S(=O)(=O)N4CCCC4)ccc32)cc1 0%
COc1ccc(Cl)cc1NC(=O)c1cc(C)nn1-c1ccccc1 -15.9%
CCOC(=O)c1c(NC(=O)c2cc(=O)c3ccc(C)cc3o2)sc(C)c1C -5.29%
COc1cccc(N2CCN(S(=O)(=O)c3ccc4c(c3)CCCN4C(C)=O)CC2)c1 -31.6%
COc1ccc(C)cc1NC(=O)Cn1cc(S(=O)(=O)Cc2ccccc2Cl)c2ccccc21 -15.1%
CCOc1cc2c(cc1OCC)C(c1c(F)cccc1Cl)CC(=O)N2 (stereo unspecified) -38%
CCc1ccccc1NC(=O)c1nc(-c2ccncc2)no1 -5.17%
Cc1cccc(NC(=O)Cn2c(C(F)(F)F)nc3ccccc32)c1C -28.5%
O=C(NCCc1csc2nc(-c3ccc(F)cc3)nn12)c1ccco1 -22.1%
CCOC(=O)c1c(S(=O)(=O)N2CCC(C(=O)N3CCN(c4cc(C)ccc4C)CC3)CC2)c(C)n(C)c1C -21.8%
Cc1sc2c(c1C)c(=O)n(-c1ccc(Cl)cc1)c(=O)n2Cc1c(F)cccc1Cl -31.5%
COc1cc(C2C(C(=O)Nc3ccccc3)=C(C)Nc3nc(SCc4ccccc4F)nn32)cc(OC)c1OC (stereo unspecified) -21.5%
COC(=O)c1cc(NC(=O)CCc2c(C)nc3cc(-c4ccccc4)nn3c2C)cc(C(=O)OC)c1 -20.3%
CC1CCN(S(=O)(=O)c2cc(C(=O)Nc3ccc(Br)cc3F)n(C)c2)CC1 -37.4%
Cc1ccc(-c2cc(C(=O)N3CCN(c4ccccc4)CC3)c3ccccc3n2)cc1C 23.8%
CCOc1ccccc1CNS(=O)(=O)c1csc(C(N)=O)c1 -27.2%
Cc1ccc(Cn2c(CCCNC(=O)C3CCCCC3)nc3ccccc32)cc1 -23.1%
O=C(Cn1ncc2c(Cl)cccc21)NCc1cccc(Br)c1 9.49%
O=C(NC1CCCCC1)c1ccc(CSc2nc3cccnc3n2Cc2ccccc2F)cc1 -26.4%
CCN1CCCC1CNC(=O)c1cc(S(N)(=O)=O)ccc1OC (stereo unspecified) -5.29%
Cc1ccc(N2CC(NC(=O)C(=O)c3c[nH]c4ccccc34)CC2=O)cc1 (stereo unspecified) -21.8%
CC(C)CCNC(=O)c1ccc2c(c1)N(Cc1ccccc1F)C(=O)c1ccccc1S2=O (stereo unspecified) -15.5%
O=S(=O)(NCc1ccccc1Cl)c1ccc(N2CCCCS2(=O)=O)cc1 -28.8%
Cc1cccc(C(=O)Nc2nc(-c3nnn(-c4cc(F)ccc4F)c3C)ns2)c1 -24.3%
Cc1cccn2c(=O)c3cc(C(=O)N(Cc4ccccc4)C(C)C)sc3nc12 0.0367%
CCCCN(C)CCNC(=O)c1ccc2c(c1)NC(=O)CN2 6.4%
Cc1c(C(=O)NCCc2ccc(S(N)(=O)=O)cc2)sc2nc3n(c(=O)c12)CCCC3 -11.8%
CC1CCN(S(=O)(=O)c2ccc3c(c2)N(CC(=O)O)C(=O)CO3)CC1 -18.9%
Cc1cccc(Cn2c(C)c(CNC3CCCCC3)c(C(=O)O)c2C)c1 -16.3%
COc1ccc(-c2cc(C(F)(F)F)n3nc(C(=O)NCC45CC6CC(CC(C6)C4)C5)cc3n2)cc1OC -14.5%
CCOC(=O)c1ccccc1NC(=O)N1CCOc2ccc(Cl)cc21 -33.2%
Cc1cc(Cl)ccc1NC(=O)C1CCN(c2nnc(-n3c(C)ccc3C)s2)CC1 -9.5%
CCc1ccccc1NC(=O)CSc1nc2c(oc3ccccc32)c(=O)n1-c1ccccc1F -22.3%
COc1ccc(-c2ccc3cc(C(=O)O)ccc3c2)cc1C12CC3CC(CC(C3)C1)C2
Cc1ccc(NC(=O)C(=O)NCC(c2cccnc2)N2CCN(Cc3ccccc3)CC2)cc1 (stereo unspecified) -19%
COc1ccc(OC)c(S(=O)(=O)N2CC=C(c3c(C)n(CC(=O)N4CCCC4)c4ccccc34)CC2)c1 -19.1%
CCOc1ccc(C2C(C(=O)Nc3ccc(Cl)cc3)=C(C)Nc3nc(C(F)(F)F)nn32)cc1 (stereo unspecified) -28.4%
O=S(=O)(c1ccc(Cl)cc1)c1nnn2c1nc(N1CCCCC1)c1sccc12 -13.3%
Cc1ccccc1NC(=O)CN(c1ccc(Cl)cc1Cl)S(=O)(=O)c1ccccc1 -19.8%
Cc1cn(C)c(CC(=O)N2CCN(c3ccccc3F)CC2)c1C(=O)O -9.05%
COc1ccc(-c2nc3sc(CCNC(=O)c4ccccc4C)c(C)n3n2)cc1 -6.87%
Cc1cccc(NC(=O)N2CCC(CN3CCOCC3)CC2)c1C -5.39%
CC(CNC(=O)CCS(=O)(=O)c1ccc2c(c1)oc(=O)n2C)c1ccccc1 (stereo unspecified) 16.3% [at 11.5 µM, percent change from vehicle, -100% = no light]
Cc1ccc2c(c1)-c1c(c(C(=O)N3CCN(c4cc(Cl)ccc4C)CC3)nn1C)CS2 -8.44%
CCOc1ccc(NC(=O)Cn2c(=O)cc(C)c3c(C)nn(-c4cccc(Cl)c4C)c32)cc1 3.53%
CCOc1ccc(C(=O)N2CCN(CCc3ccccn3)CC2)cc1 4.38% [at 11.5 µM, percent change from vehicle, -100% = no light]
Cn1c(=O)[nH]c(=O)c2c1nc1n2CCN1c1ccccc1 -5.6%
CCOc1ccc(S(=O)(=O)c2cn(Cc3ccc(OC)cc3)c3ccc(F)cc3c2=O)cc1 -2.78%
CC(C)c1ccc(NC(=O)CCNS(=O)(=O)c2ccc3c(c2)CCCC(=O)N3)cc1 -22.7%
CCOC(=O)CC(NC(=O)CCc1c(C)nc2ncnn2c1C)c1ccc(OC(C)C)cc1 (stereo unspecified) -15.9%
Cc1ccccc1CSc1nc2cccnc2n1Cc1ccc(C(=O)NC2CC2)cc1 10.6%
CCOc1ccc(Nc2nc(C)c(NC(=O)c3cccc(OC)c3)c(Nc3ccc(OCC)cc3)n2)cc1 -42%
COc1ccc(CNC(=O)C2CCC(CNS(=O)(=O)c3cccs3)CC2)cc1 (stereo unspecified) -22.4%
CCOC(=O)c1ccccc1NC(=O)CSc1cn(CC(=O)N2CCOCC2)c2ccccc12 -17%
Cc1ccc(-c2nc(S(=O)(=O)c3ccc(C)cc3)c(N3CCCCCC3)o2)cc1 -9.23%
Cc1ccc(N2CCN(S(=O)(=O)c3nnc(NC(=O)c4ccc(C(C)C)cc4)s3)CC2)cc1 0.316%
CCCCCCCCCCCC(=O)[O][Sn]([CH2]CCC)([CH2]CCC)[O]C(=O)CCCCCCCCCCC 0.366%
Cc1cc(C)c(NC(=O)CSc2nc(-c3ccc(F)cc3)nc3c2Cc2c(CO)cnc(C)c2O3)c(C)c1 -12.4%
COc1ccc(S(=O)(=O)N(CC(=O)Nc2cccc(C)c2)c2ccc(C)cc2)cc1OC -21.8%
CCOC(=O)C1=C(CN(CC)Cc2ccccc2)NC(=O)NC1c1ccc(OC(C)C)cc1 (stereo unspecified) -46.3%
COc1ccccc1CNC(=O)c1ccc(N2CCCC2)c(NC(=O)NCc2ccc(F)cc2)c1 -9.27%
CCCCSCCCNC(=O)C1CCN(Cc2nc(-c3cccc(Br)c3)oc2C)CC1 0.761%
O=C(Cn1ncc2c3ccccc3n(Cc3ccccc3F)c2c1=O)N1CCCCC1 15.7%
CC(C)CN(CCCNC(=O)CN1N=C(c2ccccc2)CCC1=O)CC(C)C 0.687%
CCOc1ccc(CCNC(=O)c2[nH]c3cc(OC)ccc3c2Sc2ccccc2)cc1OCC -0.615%
COc1ccc(N2CCN(c3ccc(-c4nc(-c5cccc(C)c5)no4)cc3[N+](=O)[O-])CC2)cc1 21.1%
CCOc1ccc(CCNC(=O)c2cnc3sc(N4CCCCCC4)nn3c2=O)cc1 -6.9%
COc1ccc(OC)c(NC(=O)CN2CCCN(Cc3cc(C)ccc3C)S2(=O)=O)c1 -12%
Cc1cccc2c1-c1sc(C(=O)N3CCN(c4cccc(Cl)c4)CC3)cc1CO2 -16.7%
CC(C)OCc1cc(CN2CCN(c3ccccc3)CC2)c(O)c2ncccc12 -43.2%
COc1ccc(-c2cc(C(F)(F)F)nc(SCC(=O)NCc3ccc(Cl)cc3)n2)cc1 -2.93%
CC1=C(C(=O)Nc2ccc(F)cc2F)C2(CCCCCC2)OC1=O -29.1%
O=C(CN1C(=O)C2(SCC(=O)N2c2ccc(F)c(F)c2)c2ccccc21)Nc1ccccc1F (stereo unspecified) -15.9%
O=C(CSc1nccn1Cc1ccc(Cl)cc1)NCc1ccccc1 -0.644%
CCOC(=O)c1ccc(N2C(=O)c3n[nH]c(-c4ccco4)c3C2c2ccc(F)cc2)cc1 (stereo unspecified) -57.5%
COc1ccccc1CNC(=O)C(CC(C)C)N1Cc2ccccc2C1=O (stereo unspecified) -12.6%
Cc1cccc(CC(=O)NCCc2csc(-c3ccc(C(F)(F)F)cc3)n2)c1 -31.1%
Cc1ccc(C)c(C(=O)COC(=O)CCCC(=O)Nc2cc(C(F)(F)F)ccc2Cl)c1 -26.7%
CCOc1ccc(NC(=O)CN2C(C(=O)OC)=C(c3ccccc3)c3cc(Cl)ccc3S2(=O)=O)cc1 -10.5%
Cc1cc(=O)[nH]c2nnc(SCc3ccc(Cl)cc3)n12 -16.5%
COC(=O)C1=C(c2ccccc2)c2ccccc2S(=O)(=O)N1CC(=O)Nc1ccc(OC)cc1OC -19.8%
O=C(NCc1ccccc1)C1CCN(S(=O)(=O)c2ccc3[nH]c(=O)ccc3c2)CC1 -9.41%
COc1ccc(NC(=O)c2c(NCc3cccc(F)c3)sc3c2CCCC3)c(OC)c1 -40.7%
Cc1cccc(N(C)S(=O)(=O)c2c(C(=O)N3CCCCCC3)c(C)n(C)c2C)c1 -10.6%
Cc1ccc(CNC(=O)CN2CCN(Cc3ccc(F)cc3)C2=O)cc1 -10.1%
COc1ccccc1NC(=O)C1CCN(S(=O)(=O)c2cn(C)cn2)CC1 -8.68%
